Results as given in publication PMC4336329 (PLoS ONE, 2015).
Hit rate of the full screen: of about 310,000 compounds, about 2,200 (0.71%) showed an effect of 50% or more. The effect is printed as a negative number. The list shows a part of the results.

The molecules below were run against human ether-à-go-go-related gene (hERG) potassium channel (human, UniProt Q12809) (assay: primary screen, population patch clamp on CHO cells stably expressing hERG).
Chain of human ether-à-go-go-related gene (hERG) potassium channel (Q12809 whole entry, looked up): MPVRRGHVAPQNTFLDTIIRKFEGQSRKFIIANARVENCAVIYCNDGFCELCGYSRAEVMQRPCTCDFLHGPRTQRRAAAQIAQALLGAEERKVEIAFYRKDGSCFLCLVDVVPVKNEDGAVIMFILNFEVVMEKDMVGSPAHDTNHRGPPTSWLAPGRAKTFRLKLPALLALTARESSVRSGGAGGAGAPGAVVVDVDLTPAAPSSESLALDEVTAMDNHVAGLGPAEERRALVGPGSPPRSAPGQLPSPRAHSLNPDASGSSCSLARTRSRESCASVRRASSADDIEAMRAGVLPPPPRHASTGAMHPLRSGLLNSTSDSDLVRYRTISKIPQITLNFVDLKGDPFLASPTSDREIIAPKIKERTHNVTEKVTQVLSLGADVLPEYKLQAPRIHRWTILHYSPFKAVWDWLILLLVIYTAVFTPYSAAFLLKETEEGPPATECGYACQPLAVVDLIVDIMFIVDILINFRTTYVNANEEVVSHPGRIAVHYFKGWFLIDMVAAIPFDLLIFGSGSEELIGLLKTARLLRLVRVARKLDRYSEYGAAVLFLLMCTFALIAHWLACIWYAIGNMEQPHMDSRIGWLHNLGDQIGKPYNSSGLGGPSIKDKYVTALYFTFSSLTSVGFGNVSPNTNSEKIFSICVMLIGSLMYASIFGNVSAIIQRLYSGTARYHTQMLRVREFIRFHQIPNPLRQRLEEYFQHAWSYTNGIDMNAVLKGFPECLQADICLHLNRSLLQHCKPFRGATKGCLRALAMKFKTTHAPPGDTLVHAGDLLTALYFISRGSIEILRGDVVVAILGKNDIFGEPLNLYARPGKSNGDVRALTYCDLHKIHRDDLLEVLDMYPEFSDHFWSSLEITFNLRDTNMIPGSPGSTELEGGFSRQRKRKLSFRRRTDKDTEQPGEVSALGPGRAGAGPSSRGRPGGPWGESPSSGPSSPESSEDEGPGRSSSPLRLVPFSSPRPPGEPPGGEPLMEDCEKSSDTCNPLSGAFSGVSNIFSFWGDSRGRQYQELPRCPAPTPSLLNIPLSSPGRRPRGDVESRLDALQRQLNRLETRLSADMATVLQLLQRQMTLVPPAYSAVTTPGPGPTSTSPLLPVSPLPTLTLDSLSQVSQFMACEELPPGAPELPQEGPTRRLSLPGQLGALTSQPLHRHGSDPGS

Compound	hERG current change (%, negative = inhibition) at 1uM
Cc1c(NC(=O)C(=O)N/N=C/c2cccs2)c(=O)n(-c2ccccc2)n1C	13.2%
CCCc1nc(SCC(=O)Nc2ccccc2OC)c2c(=O)n(C)c(=O)n(C)c2n1	4.49%
O=C(Nc1cccc(NC(=S)NC(=O)c2cccs2)c1)c1ccccc1	10.8%
CCC(=O)Nc1c2c(nn1-c1cccc(Cl)c1)CS(=O)(=O)C2	4.32%
CCN(C(=O)c1ccccc1F)c1nc(-c2ccc(OC)cc2)cs1	9.6%
Nc1ncn([C@@H]2O[C@H](CO)[C@@H](O)[C@H]2O)c(=O)n1	6.99%
O=C(CCCNS(=O)(=O)c1cccc2nsnc12)NCCc1ccccc1	10.9%
Cc1nn(Cc2ccccc2Cl)c(Cl)c1C(=O)O	9.69%
CN(C)CCNc1oc(-c2cccc(Cl)c2)nc1C#N	-11.6%
Cc1cccc(NC(=O)CSc2nnc(NC(=O)CN3CCCCC3)s2)c1	10.6%
O=C1CC(Sc2nnnn2C2CCCCC2)C(=O)N1c1ccccc1 (stereo not shown)	9.94%
CC1(C)C=C(c2ccc(C=O)s2)CC(C)(C)N1	8.81%
CC(C)OC(=O)CN1C(=O)C(C)(C)Oc2ccc(C(=O)NC(C)(C)C)cc21	3.33%
O/N=C1\CCCC\C1=C/c1ccccc1	-0.676%
CN1C[C@@H]2C(c3ccc(C(F)(F)F)cc3)C3(c4cccnc4)CC2(C3)[C@H]1c1ccccc1 (stereo partly shown)	4.84%
Cc1ccc(C)c(OCc2ccc(C(=O)NN)o2)c1	2.86%
O=C(CCNS(=O)(=O)c1ccccc1)N1CCC(Cc2ccccc2)CC1	12%
Cc1cccc(C)c1N1CCN(S(=O)(=O)N2CCCCC2)CC1	15.9%
CCCc1nnc(NC(=O)CN2C(=O)c3ccccc3S2(=O)=O)s1	9.4%
COc1cc(/C=N/NC(=O)CN2CCCCC2)ccc1OCc1ccc(Br)cc1	-1.9%
CC(C)(C)NC(=O)C(c1ccc(O)cc1)N(Cc1ccccc1)C(=O)CCC(=O)Nc1nccs1 (stereo not shown)	10.6%
CCOc1ccc(NC(=O)C2=C(C)NC(=S)NC2c2ccc(O)c(OC)c2)cc1 (stereo not shown)	12.7%
O=C(NCc1cccc(Cl)c1)C1CCN(S(=O)(=O)c2ccc(F)cc2)CC1	3.5%
CCC(C)(C)NC(=O)C1CCN(c2nc(C)cc(C)n2)CC1	15.1%
Cl.NC(N)=NC(N)=Nc1cccc(Cl)c1	3.28%
